In PubChem BioAssay AID686978 (National Center for Advancing Translational Sciences (NCATS), 2013):
Where “and” joins values, the source holds several entries; their conditions need not be identical. Equal values may be shown once. About 64,000 (15%) of roughly 420,000 compounds were called active. Inconclusive means that the source gave no clear call. Such entries were picked first, then a sample of the others. Calls follow the shape of the dose curve; as a rule, active = well fitted inhibition curve with a large enough effect; inconclusive = small, poorly fitted or top-dose-only effect; inactive = flat fitted curve, though single readings scatter. A potency beside an inconclusive call is a rough fit, not a confirmed value.

Assay: qHTS for Inhibitors of human tyrosyl-DNA phosphodiesterase 1 (TDP1): qHTS in cells in absence of CPT; also: nearly all actives have a fitted effect of over 55% in size
Conditions: DT40 Tdp1-/- hTDP1 cells, no CPT, ATP luminescence, 48 h; activity change, negative = growth inhibition: at 46.2 µM (top of the series) unless noted
In short: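 Chicken DT40 Tdp1-/- cells stably complemented with human TDP1 were seeded at 400 cells/well with DMSO in place of 20 nM camptothecin. After compound pinning, cells grew at least 48 hr at 37 °C; viability read by CellTiter-Glo luminescence.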
% is scaled to controls: 0 for no effect and ±100 for the full control effect; potency is read from the fitted curve at half-maximal effect; tags tell the direction and shape of the fitted curve.

| Structure (SMILES) | activity change, negative = growth inhibition | Potency |
| --- | --- | --- |
| Cc1ccccc1CN1CCN(C/C=C/c2ccccc2)CC1 | inconclusive: -31.6% [inhibitor] | – |
| O=C(CCn1c(=O)oc2ccc(Cl)cc21)NCCCN1CCOCC1 | – | inactive |
| C[C@H](CO)N1C[C@H](C)[C@@H](CN(C)CC2CCCCC2)Oc2c(NC(=O)Cc3ccccc3)cccc2C1=O | – | active: 16.4 µM |
| CCCn1ccc2c(OCC(=O)NCc3ccc(F)cc3)cccc2c1=O | – | inconclusive: 14.6 µM [inhibitor, partial curve, poor fit] |
| Cc1cccc(-n2c(=O)c3c(n4cnnc24)-c2ccccc2CC32CCCCC2)c1 | – | inconclusive: 23.1 µM [inhibitor, single point] |
| CCC(C)(C)n1nnnc1C(c1cc2cc(C)cc(C)c2[nH]c1=O)N1CCCC1 (configuration not stated) | – | inconclusive: 29.1 µM [inhibitor, partial curve] |
| Cc1ccc(-c2nc(S(=O)(=O)c3ccc(Cl)cc3)c(N3CCCCC3)o2)cc1 | – | inconclusive: 1.03 µM [inhibitor, partial curve, poor fit] |
| Cc1nn(C)c2ncc(C(=O)c3ccccc3O)cc12 | – | inconclusive: 29.1 µM [inhibitor, single point] |
| CCn1c(N)c(C(=O)NC2CCCCC2)sc1=S | – | inconclusive: 10 µM [inhibitor, partial curve] |
| COc1ccc2ccc(OC)c(/C=N/NC(=O)c3cc4ccccc4o3)c2c1 | – | active: 18.4 µM |
| COc1ccc(Cl)cc1C(=O)Nc1ccc2oc(-c3ccc(C(C)(C)C)cc3)nc2c1 | – | inconclusive: 9.2 µM [inhibitor, partial curve] |
| Cc1csc(Sc2nc3c(c(=O)[nH]c(=O)n3C)n2CCCc2ccccc2)n1 | – | inconclusive: 20.6 µM [inhibitor, single point] |
| CCCN1CCC(=O)N([C@H](COc2ccccc2)CC(C)C)CC1 | – | inconclusive: 35.5 µM [inhibitor, single point] |
| Cc1ccc(/C=C/C(=O)N2CCCN(C(=O)/C=C/c3ccc(C)cc3)CC2)cc1 | – | active: 14.6 µM |
| Cc1cccc(NC(=O)C2CCN(S(=O)(=O)c3cccc4nonc34)CC2)c1 | – | inactive |
| O=C(Cc1ccccc1)N/N=C/c1cccc([N+](=O)[O-])c1 | – | inconclusive: 29.1 µM [inhibitor, single point] |
| COc1ccccc1N1CCN(S(=O)(=O)c2cc(C)sc2C)CC1 | – | inconclusive: 29.1 µM [inhibitor, single point] |
| CCc1ccc(NS(=O)(=O)c2cc3c(cc2C)n(C)c(=O)c(=O)n3C)cc1 | – | active: 13 µM |
| CCOc1ccccc1N(CC(=O)N1CCCCCC1)S(C)(=O)=O | inconclusive: -21.5% [inhibitor] | – |
| Cc1cc(NC(=O)CSCC(=O)Nc2nc3ccccc3[nH]2)no1 | – | inactive |
| Cc1noc(C)c1C(=O)N1CCC2(CC1)CCN(c1ccncc1)CC2 | – | inconclusive: 9.2 µM [inhibitor, partial curve] |
| COc1ccc(OC)c(NC(=O)c2cccc(Cn3cc(Br)c([N+](=O)[O-])n3)c2)c1 | – | inconclusive: 11.6 µM [inhibitor, partial curve] |
| C[C@H](CO)N1C[C@H](C)[C@@H](CN(C)C(=O)Cc2ccccc2)OCCCC[C@H](C)Oc2ccc(NC(=O)NC3CCCCC3)cc2C1=O | – | inconclusive: 29.1 µM [inhibitor, single point] |
| Cc1nc2ccc(C(=O)N3CCCC(CO)(Cc4ccc(F)cc4F)C3)cc2nc1C (configuration not stated) | – | inconclusive: 23.1 µM [inhibitor, single point] |

| Structure (SMILES) | activity change, negative = growth inhibition | Potency |
| --- | --- | --- |
| CCCSC1=NC2(CCN(C(=O)NC3CCCCC3)CC2)N=C1c1ccccc1 | – | inactive |
| CN(CC(=O)Nc1ccc(F)cc1)C(=O)c1cccc(S(=O)(=O)N2CCN(c3ccc(F)cc3)CC2)c1 | – | active: 13 µM |
| O=C(NN=Cc1c(O)ccc2ccccc12)c1ccc2c(c1)OCO2 | – | active: 2.59 µM |
| O=C(Nc1ccc(F)cc1F)c1ccc2c(c1)[nH]c(=O)n2Cc1ccc(F)cc1 | – | inactive |
| O=c1oc2ccccc2c2c1ncn2CCN1CCOCC1 | – | inconclusive: 29.1 µM [inhibitor, partial curve, poor fit] |
| CCOc1ccc(CCNC(=O)Nc2cccc(OC)c2)cc1OCC | – | inactive |
| Cc1c(C(=O)OCC(C)C)[nH]c2c1C(=O)CC(c1ccco1)C2 (configuration not stated) | – | active: 0.82 µM |
| CCCSc1ncc(Cl)c(C(=O)Nc2sc3c(c2C(=O)NCC)CCCC3)n1 | – | inconclusive: 35.5 µM [inhibitor, single point] and inconclusive: 16.4 µM [inhibitor, single point] |
| CCCNC(=O)c1c(NC(=O)C2COc3ccccc3O2)sc2c1CCCC2 (configuration not stated) | – | inconclusive: 29.1 µM [inhibitor, single point] |
| O=C(/C=C/c1c(Cl)cccc1Cl)N1CCOCC1 | – | inconclusive: 0.461 µM [inhibitor, full curve, poor fit] |
| Cc1ccc(-n2cc(C(=O)O)c(=O)cc2C)c(C)c1 | – | inactive |
| CCOc1ccc(OCCC(=O)OCC(=O)Nc2cc(OCC)c(N3CCOCC3)cc2OCC)cc1 | – | active: 25.9 µM |
| CC(C)c1nnc(NC(=O)c2nc(SCc3ccc(F)cc3)ncc2Cl)s1 | – | inactive |
| CCOc1cccc(/C=N/NC(=S)Nc2ccccc2[N+](=O)[O-])c1O | – | active: 8.2 µM |
| CC(=O)Nc1cccc(-c2cnc(N)c(C(=O)c3cccnc3)n2)c1 | – | active: 10.3 µM |
| COC(=O)[C@@H]1CCCN1C(=O)c1c(OC)cc(=O)n2c1CCN(Cc1ccc3nsnc3c1)CC2 | – | inactive |
| Cc1cccc(C)c1NC(=O)COC(=O)c1cc(=O)c2ccccc2o1 | – | inconclusive: 23.1 µM [inhibitor, single point] |
| Cn1c(CBr)c(C(=O)c2ccc([N+](=O)[O-])cc2)c(=O)n(C)c1=O | – | inactive |
| CCOc1cc(/C=N\NC(=O)c2ccc(NC(=O)C(C)(C)C)cc2)ccc1OC(=O)c1cccc(C)c1 | – | active: 8.2 µM |
| COc1cnc(SCCC(F)=C(F)F)[nH]c1=O | – | inactive |
| CC(CCc1ccccc1)NC(=O)CNC(=O)COc1ccccc1 (configuration not stated) | – | inactive |
| COc1cc(NS(=O)(=O)c2cc3[nH]c(=O)c(=O)[nH]c3cc2C)cc(OC)c1OC | – | inconclusive: 0.461 µM [inhibitor, full curve, poor fit] |
| CC1Cc2ccccc2N1C(=O)CSc1nc2ccccc2o1 (configuration not stated) | – | inconclusive: 10.3 µM [inhibitor, partial curve] |
| COc1ccc(-c2nc3cnc(OCc4ccccc4)nc3n(CCC#N)c2=O)cc1 | – | inactive |

| Structure (SMILES) | activity change, negative = growth inhibition | Potency |
| --- | --- | --- |
| CSc1ncc(Cl)c(C(=O)Nc2nc3ccc(F)cc3s2)n1 | – | inactive |
| COc1cccc(NC(=O)CN(Cc2ccccc2)S(=O)(=O)c2ccc3nc(C)sc3c2)c1 | – | active: 25.9 µM |
| NC(=O)C1CCCN1 (configuration not stated) | – | inactive |
| Cc1ccc2nc(NC(=O)CSc3nc(=O)n(CCCN(C)C)c4c3CCC4)sc2c1 | – | active: 13 µM |
| S=C(NCCc1ccccc1)NC1CC2CCC(C1)N2Cc1ccccc1 (configuration not stated) | – | inconclusive: 29.1 µM [inhibitor, single point] |
| Cc1nn(CCCC(=O)NCc2cccc(F)c2)c(=O)c2nn(-c3ccccc3)c(C)c12 | – | inconclusive: 7.31 µM [inhibitor, partial curve] |
| O=c1c2ccccc2oc2ccccc12 | – | inactive |
| O=C1C=CC(=O)N1c1ccc2c(c1)Cc1cc(F)ccc1-2 | – | active: 2.06 µM |
| NC(=O)c1c(NC(=O)Cc2cccs2)sc2c1CCC2 | – | inconclusive: 29.1 µM [inhibitor, single point] |
| COc1ccc(/C=C/c2nc(S(=O)(=O)c3ccccc3)c(NCCCN(C)C)o2)cc1OC | – | inactive |
| CN(CC(=O)Nc1ccc(N2CCOCC2)cc1)Cc1cc(=O)n2ccsc2n1 | – | inconclusive: 29.1 µM [inhibitor, partial curve, poor fit] |
| CN(C)c1ccc(-c2nnc(-c3ccc(S(=O)(=O)C(F)F)cc3)o2)cc1 | – | inconclusive: 23.1 µM [inhibitor, single point] |
| CC(C)OC(=O)c1c(NC(=O)c2cnn3c2NC(c2ccccc2)CC3C(F)(F)F)sc2c1CCCC2 (configuration not stated) | – | inconclusive: 29.1 µM [inhibitor, single point] |
| COc1ccc(S(=O)(=O)NCCS(=O)(=O)N2CCN(c3ccccc3)CC2)cc1 | – | inconclusive: 18.4 µM [inhibitor, single point] |
| Cc1ccc(N=C(N)N=C(N)N)c(C)c1 | inconclusive: -30.3% [inhibitor] | – |
| CCCCNC(=O)CSc1nc(Cc2ccccc2)nc2ccccc12 | – | inconclusive: 18.4 µM [inhibitor, single point] |
| CCCCc1nn2c(=O)cc(COC(=O)c3cccc(NC(=O)c4cccc(C)c4)c3)nc2s1 | – | inactive |
| CNc1ccc(/C=C2\C=Cc3ccccc32)cc1I | – | inconclusive: 35.5 µM [inhibitor, single point] |
| CCCc1cc(N2CCN(C(=O)c3ccco3)CC2)n2c(nc3ccccc32)c1C#N | – | inconclusive: 29.1 µM [inhibitor, partial curve] |
| O=C(C[n+]1ccc(C(=O)c2ccccc2)cc1)Nc1ccc(C(F)(F)F)cc1 | – | active: 16.4 µM |
| COc1cccc(CNC(=O)CN2C(=O)c3ccccc3S2(=O)=O)c1 | – | inactive |
| Cc1cc(C(=O)Nc2ccc(S(=O)(=O)N3CCOCC3)cc2)ccc1[N+](=O)[O-] | – | inconclusive: 18.4 µM [inhibitor, partial curve, poor fit] |
| Cc1ccc(C(=O)Nc2cccc(-c3nc(CNC(=O)c4cccc(C)c4C)c(C)o3)c2)s1 | – | active: 20.6 µM |
| CCOC(=O)c1c(S(=O)(=O)NCC(=O)Nc2ccc(Cl)c(C(F)(F)F)c2)c(C)n(C)c1C | – | inconclusive: 20.6 µM [inhibitor, single point] |
